{"source": "PubChem BioAssay AID652104", "about": "(National Center for Advancing Translational Sciences (NCATS), 2013)", "note": "Hit rate of the full screen: of about 410,000 compounds, about 7,200 (1.8%) were called active. The shares of active, inactive and inconclusive entries below differ from those in the screen. The call rests on the fitted dose curve; in most records, active means well fitted activation curve with a large enough effect; inconclusive means small, poorly fitted or top-dose-only effect, or another doubt; inactive means no such curve, though single readings can be large or run the other way. No potency is given beside an inconclusive call; the fits are too rough. Potency means the concentration at half of the fitted maximal effect; tags describe the fitted curve by direction and shape."}
{"assay": "qHTS of TDP-43 Inhibitors; further: nearly all actives have a fitted effect of over 50% in size; on growth rescue (activation): % of control where 0% means no effect", "settings": "TDP-43 expressing yeast growth rescue, BacTiter-Glo, 24 h; growth rescue (activation): at 46.1 µM (top of the series) unless noted", "procedure,_shortened": "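Cell-based yeast growth screen: TDP-43 expression induced in galactose, inoculum OD600=0.02 after raffinose pregrowth to mid-log. Read-out BacTiter-Glo luminescence at 24 hr, 30 deg C; inhibition of toxicity seen as signal increase.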"}
{"smiles": "O=C(NCc1cccc(C(F)(F)F)c1)c1[nH]c(C(F)(F)F)nc1-c1ccccc1", "Potency": "inconclusive [activator, partial curve]"}
{"smiles": "CC1(C(=O)N2CCN(c3ccc([N+](=O)[O-])cc3)CC2)CC1(Cl)Cl", "note": "(stereo not given)", "Potency": "active: 11.2 µM"}
{"smiles": "Clc1cccc2sc(N3CCCCC3)nc12", "Potency": "inconclusive [activator, partial curve]"}
{"smiles": "CCOC(=O)C1CCCN(C(=O)c2ccc3c(c2)sc2nc(-c4ccc(CC)cc4)cn23)C1", "note": "(stereo not given)", "Potency": "inactive"}
{"smiles": "Cc1cn(C(=O)c2ccccc2)c(=S)n1-c1ccc(Br)cc1", "Potency": "inconclusive [activator, single point]"}
{"smiles": "c1csc(-c2cc(N3CCCCC3)c3ccccc3n2)c1", "Potency": "inactive"}
{"smiles": "Cc1oc(-c2ccc(C(=O)NCc3cccc(F)c3)cc2)nc1COc1ccccc1", "Potency": "inconclusive [activator, full curve]"}
{"smiles": "Cc1ccc(Cn2ccnc2SCC(=O)NCc2ccccc2Cl)cc1", "Potency": "active: 11.2 µM"}
{"smiles": "CCn1c(C(=O)N2CCC(C(=O)NCCc3ccc(C)cc3)CC2)cc2sccc21", "Potency": "inconclusive [activator, single point]"}
{"smiles": "O=C(/C=C/c1c(Cl)cccc1Cl)n1cccn1", "Potency": "inconclusive [activator, single point]"}
{"smiles": "Cc1ccc(-c2nc(CS(=O)(=O)CC(=O)NC3CCC(C)CC3)c(C)o2)cc1", "note": "(stereo not given)", "Potency": "inactive"}
{"smiles": "O=C(Cc1ccccc1)NNC(=S)NC(=O)c1cccs1", "growth rescue (activation)": "inconclusive: -54.6% [activator]"}
{"smiles": "O/N=C/c1ccc(OCc2ccccc2F)c(Cl)c1", "Potency": "inconclusive [activator, partial curve]"}
{"smiles": "C=CCNC(=O)c1ccc(C)cc1Cl", "Potency": "inconclusive [activator, partial curve]"}
{"smiles": "COc1cccc(OCCn2cc(C=O)c3ccccc32)c1", "Potency": "inconclusive [activator, single point]"}
{"smiles": "CCc1ccc(NC(=O)Nc2cnccn2)cc1", "Potency": "inconclusive [activator, partial curve]"}
{"smiles": "CN1C(C(=O)NCc2ccc(OC(F)(F)F)cc2)CC2Cn3c(nc4cc(Cl)c(Cl)cc43)C21", "note": "(stereo not given)", "Potency": "inconclusive [activator, single point]"}
{"smiles": "Cc1cccc(NS(=O)(=O)c2ccc3c(c2)CC(C)N3C(=O)C2CCC2)c1C", "note": "(stereo not given)", "Potency": "active: 20 µM"}
{"smiles": "Cc1ccc(F)c(S(=O)(=O)NC(=O)C2(C)CCN2C(=O)Cc2cccc3ccccc23)c1", "note": "(stereo not given)", "Potency": "inconclusive [activator, full curve]"}
{"smiles": "Cc1ccc(-c2ccc(=O)n(CCC(=O)N3CCN(c4cccc(C)c4)C(C)C3)n2)cc1", "note": "(stereo not given)", "Potency": "inconclusive [activator, partial curve]"}
{"smiles": "S=C(N/N=C/c1cccs1)NC1CC2CCC1C2", "note": "(stereo not given)", "Potency": "inconclusive [activator, single point]"}
{"smiles": "Cc1cc(Cl)c2oc(C(=O)N3CCOCC3)c(C)c2c1", "Potency": "inconclusive [activator, partial curve]"}
{"smiles": "CCCOC(=O)c1cccc(NC(=O)C(C)(C)C)c1", "Potency": "inconclusive [activator, partial curve]"}
{"smiles": "CCc1ccc(CSc2nccn2-c2ccccc2)cc1", "Potency": "inconclusive [activator, partial curve]"}
{"smiles": "FC(F)(F)c1cc(Sc2ccccc2)nc(-c2ccccn2)n1", "Potency": "inconclusive [activator, single point]"}
{"smiles": "CC(C)CC(=O)NC(=S)Nc1ccc(N2CCOCC2)c(Cl)c1", "Potency": "inconclusive [activator, single point]"}
{"smiles": "CC(C)(C)OC(=O)NCCCCCc1nnc(SCc2ccccc2F)o1", "Potency": "inconclusive [activator, single point]"}
{"smiles": "CC(=O)Nc1ccc(OCC(O)CNC2CCCC2)cc1", "note": "(stereo not given)", "Potency": "inconclusive [activator, full curve, poor fit]"}
{"smiles": "Cc1ccc(OCCn2cnc(Cl)c2Cl)cc1", "Potency": "inconclusive [activator, single point]"}
{"smiles": "Nc1cc(Cl)cc2c1-c1ccc(Cl)cc1C2", "Potency": "inconclusive [activator, single point]"}
{"smiles": "Cc1ccc(CN2CCN(Cc3cnn(-c4ccc(F)cc4)c3)CC2CCO)o1", "note": "(stereo not given)", "Potency": "inactive"}
{"smiles": "O=C(NCCCN1CCCCCC1)c1ccc2c(c1)sc1nc(-c3ccccc3)cn12", "Potency": "inactive"}
{"smiles": "Cc1scc(-c2n[nH]c(=S)n2Cc2ccccc2)c1C", "Potency": "inconclusive [activator, full curve, poor fit]"}
{"smiles": "O=C1C=C(c2ccc3[nH]ccc3c2)C[C@@H](c2ccc(Cl)cc2)C1", "Potency": "inconclusive [activator, single point]"}
{"smiles": "Cc1c(C(=O)N2CCC(C)CC2)sc2ncnc(N3CCN(c4ccccc4)CC3)c12", "Potency": "inconclusive [activator, single point]"}
{"smiles": "O=C(OCCSCCOC(=O)C1CC=CCC1)C1CC=CCC1", "note": "(stereo not given)", "Potency": "inconclusive [activator, full curve]"}
{"smiles": "COc1ccc(-c2csc(NC(=O)CS(=O)(=O)c3ccccc3)n2)cc1OC", "Potency": "inconclusive [activator, partial curve]"}
{"smiles": "CCOC(=O)C1CCCN(C(=O)c2sc3nc(-c4ccccc4)cn3c2C)C1", "note": "(stereo not given)", "Potency": "inactive"}
{"smiles": "O=C(NCC1CCCO1)c1nnc(Cc2ccc(F)cc2)o1", "note": "(stereo not given)", "Potency": "inconclusive [activator, partial curve, poor fit]"}
{"smiles": "COc1ccc(C(=O)NC2CCSc3ccccc32)cc1", "note": "(stereo not given)", "Potency": "inconclusive [activator, partial curve]"}
{"smiles": "Cc1ccc2[nH]c3c(c2c1)CCc1cn[nH]c1-3", "growth rescue (activation)": "inconclusive: -88.1% [activator]"}
{"smiles": "COc1cccc(CNC(=O)C2CCC(CNS(=O)(=O)c3cccc4cccnc34)CC2)c1", "note": "(stereo not given)", "Potency": "inactive"}
{"smiles": "Cn1c(CNC(=O)c2ccccc2)nnc1SCC(=O)Nc1nccs1", "Potency": "inconclusive [activator, single point]"}
{"smiles": "O=C(NCC(c1cccs1)S(=O)(=O)c1cccs1)c1cccc(F)c1", "note": "(stereo not given)", "Potency": "inactive"}
{"smiles": "CN(c1ccc(C(=O)Nc2ccc(F)cc2F)cc1)S(=O)(=O)c1ccccc1", "Potency": "inconclusive [activator, single point]"}
{"smiles": "NC(=O)CSc1ncc2c(n1)-c1ccccc1N(Cc1ccc(F)cc1)S2(=O)=O", "Potency": "inactive"}
{"smiles": "Cc1ccc(-c2ccc(CCC(=O)O)n2-c2ccc(C(N)=O)cc2)cc1", "Potency": "inactive"}
{"smiles": "COc1ccc2c(CC(=O)N3CCN(S(=O)(=O)c4cccs4)CC3)coc2c1", "Potency": "inactive"}
{"smiles": "O=C(/C=C/c1ccc(OC2CSC2)cc1)c1ccccc1", "Potency": "inconclusive [activator, single point]"}
{"smiles": "CC(C)=CC(O)C/C(C)=C/COc1ccc2ccc(=O)oc2c1", "note": "(stereo not given)", "Potency": "inconclusive [activator, partial curve]"}
{"smiles": "O=C(Cc1ccccc1)NCCSCc1ccccc1", "Potency": "inconclusive [activator, partial curve]"}
{"smiles": "COCc1cccc(C2=CC(=O)C[C@H](c3ccc(F)cc3)C2)c1", "Potency": "inconclusive [activator, single point]"}
{"smiles": "C[C@@H]1CN([C@@H](C)CO)C(=O)c2cc(NS(=O)(=O)c3ccc(F)cc3)ccc2O[C@@H](C)CCCCO[C@H]1CN(C)C(=O)NC1CCCCC1", "Potency": "inconclusive [activator, full curve]"}
{"smiles": "COc1cccc(-c2nnc(SCc3cccnc3)o2)c1", "Potency": "active: 12.6 µM"}
{"smiles": "COc1ccc(S[C@@H](CCN2CC[C@H](C)CCC2=O)c2ccccc2)cc1", "Potency": "inconclusive [activator, single point]"}
{"smiles": "CCn1c(SCC(=O)OC(C)C)nnc1-c1ccccc1", "Potency": "inactive"}
{"smiles": "CN(C)c1ccc(-c2csc(C(O)c3cccc(Cl)c3)n2)cc1", "note": "(stereo not given)", "Potency": "inconclusive [activator, partial curve, poor fit]"}
{"smiles": "COC(=O)[C@@H](C)NC(=O)c1ccc2oc(CCc3ccccc3)nc2c1", "Potency": "inconclusive [activator, partial curve]"}
{"smiles": "COc1ccc(-n2nnnc2C2CCN(S(=O)(=O)c3ccc(C)cc3)CC2)cc1", "Potency": "inactive"}
{"smiles": "CC1CC2(CCCCC2)Nc2c1ccc1ccccc21", "note": "(stereo not given)", "Potency": "inconclusive [activator, single point]"}
{"smiles": "O=C(COc1ccccc1Br)NCCC1=CCCCC1", "Potency": "inconclusive [activator, partial curve]"}
{"smiles": "C/C=C/c1ccc(OCCn2nnc3ccccc32)c(OC)c1", "Potency": "inconclusive [activator, partial curve]"}
{"smiles": "COc1ccc(C)cc1NS(=O)(=O)c1ccc(Br)s1", "Potency": "inconclusive [activator, single point]"}
{"smiles": "CCOc1ncccc1C(=O)OCC(=O)Nc1ccc2c(c1)CCC2", "Potency": "inconclusive [activator, partial curve]"}
{"smiles": "Cc1ccc(OCC(=O)NC2CCCC2)c(C)c1", "Potency": "inactive"}
{"smiles": "Cc1ccc(C)c(N2CCN(C(=O)CCC(=O)N3CCOc4ccc(Cl)cc43)CC2)c1", "Potency": "inconclusive [activator, single point]"}
{"smiles": "CCc1cc(-c2n[nH]c(C)c2Oc2ccc(C(C)C)cc2)c(O)cc1O", "Potency": "inconclusive [activator, single point]"}
{"smiles": "NS(=O)(=O)c1ccc(Nc2ccc3nonc3c2[N+](=O)[O-])cc1", "Potency": "inactive"}
{"smiles": "CCOC(O)[C@H]1N[C@@H](c2ccc(Cl)cc2)[C@@H]([N+](=O)[O-])[C@@H]1c1ccccc1", "note": "(stereo not given in full)", "Potency": "inconclusive [activator, partial curve]"}
{"smiles": "COC(=O)c1sccc1NC(=O)c1cccc(Cl)c1", "Potency": "inconclusive [activator, partial curve]"}
